Test results reported in the supplement of paper PMC12217912.
Some of the results follow. Sequences were assembled here from the parent chain. Inactive controls read about 0.05.

B1: TEV protease; numbered along this chain (parent)
chain: MGESLFKGPRDYNPISSSICHLTNESDGHTTSLYGIGFGPFIITNKHLFRRNNGTLVVQSLHGVFKVKDTTTLQQHLVDGRDMIIIRMPKDFPPFPQKLKFREPQREERICLVTTNFQTKSMSSMVSDTSCTFPSGDGIFWKHWIQTKDGQCGSPLVSTRDGFIVGIHSASNFTNTNNYFTSVPKNFMELLTNQEAQQWVSGWRLNADSVLWGGHKVFMVKPEEPFQPVKEATQL

Variants of: B1
Assay: raw area under fraction-flipped curve 0-4 h after induction (AUC4h, not background-subtracted), DNA-recorder readout of cleavage of the substrate (dimensionless); higher = more cleavage of the substrate by the protease variant
Settings: temperature: 34 °C; time window: 0-4 h after rhamnose induction
Experimental: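 In vivo DNA recorder in E. coli TOP10(DE3) ΔrhaA at 34 °C. Each TEVp single-site mutant (parent TEVp 0) is paired with a single-site variant of the 7-mer TEVs (canonical ENLYFQ|S). The substrate sits between flexible linkers in a Bxb1-sfGFP-TEVs-SsrA fusion, so cleavage stabilises Bxb1 and speeds flipping of a recombination array, read by NGS. The value is the raw area under the fraction-flipped curve over 0-4 h after rhamnose induction (AUC4h), with ≥20 reads per time point. It is not background-subtracted; inactive controls average about 0.047.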
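Note: Bxb1 expression induced with 0.2% (w/v) L-rhamnose at OD600 near 0.5, cultures sampled hourly, flipped fraction per protease–substrate barcode pair counted by paired-end Illumina sequencing.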

| Variant | area with substrate EALYFQS | area with substrate ECLYFQS | area with substrate EDLYFQS | area with substrate EFLYFQS | area with substrate EGLYFQS | area with substrate EHLYFQS | area with substrate EILYFQS | area with substrate EMLYFQS | area with substrate EPLYFQS | area with substrate ESLYFQS | area with substrate ETLYFQS | area with substrate EVLYFQS | area with substrate EWLYFQS | area with substrate EYLYFQS | area with substrate EELYFQS | area with substrate EKLYFQS | area with substrate ELLYFQS | area with substrate EQLYFQS | area with substrate ERLYFQS |
| --- | --- | --- | --- | --- | --- | --- | --- | --- | --- | --- | --- | --- | --- | --- | --- | --- | --- | --- | --- |
| MGESLFKGPRDYNPISSSICHLTNESDGHTTSLYGIGFGPFIITNKHLFRRNNGTLVVQSLHGVFKVKDTTTLQQHLVDGRDMIIIRMPKDFPPFPQKLKFREPQREERICLVTTNFQTKSMSSMVSDTSCTFPSGDGIFWKHWIQTKDGQCGSPLVSTRDGFIVGIHSASNFTNKNNYFTSVPKNFMELLTNQEAQQWVSGWRLNADSVLWGGHKVFMVKPEEPFQPVKEATQL [T176K] | 0.0881 | 0.0656 | 0.077 | 0.0899 | 0.0858 | 0.0799 | 0.0453 | 0.0919 | 0.12 | 0.0925 | 0.0468 | 0.0882 | 0.0546 | 0.0575 | – | – | – | – | – |
| MGESLFKGPRDYNPISSSICHLTNESDGHTTSLYGIGFGPFIITNKHLFRRNNQTLVVQSLHGVFKVKDTTTLQQHLVDGRDMIIIRMPKDFPPFPQKLKFREPQREERICLVTTNFQTKSMSSMVSDTSCTFPSGDGIFWKHWIQTKDGQCGSPLVSTRDGFIVGIHSASNFTNTNNYFTSVPKNFMELLTNQEAQQWVSGWRLNADSVLWGGHKVFMVKPEEPFQPVKEATQL [G54Q] | 0.0783 | 0.0717 | 0.057 | 0.0668 | 0.102 | 0.0748 | – | 0.0751 | 0.0709 | 0.0603 | 0.0653 | 0.0545 | 0.0665 | 0.0712 | 0.1 | 0.0697 | 0.0847 | 0.074 | 0.0686 |
| MGEHLFKGPRDYNPISSSICHLTNESDGHTTSLYGIGFGPFIITNKHLFRRNNGTLVVQSLHGVFKVKDTTTLQQHLVDGRDMIIIRMPKDFPPFPQKLKFREPQREERICLVTTNFQTKSMSSMVSDTSCTFPSGDGIFWKHWIQTKDGQCGSPLVSTRDGFIVGIHSASNFTNTNNYFTSVPKNFMELLTNQEAQQWVSGWRLNADSVLWGGHKVFMVKPEEPFQPVKEATQL [S4H] | 0.147 | 0.131 | 0.112 | – | 0.173 | 0.135 | 0.115 | 0.147 | – | 0.125 | 0.124 | 0.115 | 0.0925 | 0.207 | 0.185 | 0.162 | – | 0.129 | 0.111 |
| MGMSLFKGPRDYNPISSSICHLTNESDGHTTSLYGIGFGPFIITNKHLFRRNNGTLVVQSLHGVFKVKDTTTLQQHLVDGRDMIIIRMPKDFPPFPQKLKFREPQREERICLVTTNFQTKSMSSMVSDTSCTFPSGDGIFWKHWIQTKDGQCGSPLVSTRDGFIVGIHSASNFTNTNNYFTSVPKNFMELLTNQEAQQWVSGWRLNADSVLWGGHKVFMVKPEEPFQPVKEATQL [E3M] | 0.139 | 0.122 | 0.151 | – | 0.123 | 0.129 | 0.0847 | – | 0.163 | 0.137 | – | 0.111 | 0.143 | – | 0.194 | – | 0.115 | 0.155 | 0.143 |
| MGESLFKGPRDYNPISSSICHLTNGSDGHTTSLYGIGFGPFIITNKHLFRRNNGTLVVQSLHGVFKVKDTTTLQQHLVDGRDMIIIRMPKDFPPFPQKLKFREPQREERICLVTTNFQTKSMSSMVSDTSCTFPSGDGIFWKHWIQTKDGQCGSPLVSTRDGFIVGIHSASNFTNTNNYFTSVPKNFMELLTNQEAQQWVSGWRLNADSVLWGGHKVFMVKPEEPFQPVKEATQL [E25G] | 0.102 | 0.0964 | 0.0701 | – | 0.0797 | 0.0996 | 0.0961 | 0.0978 | 0.0849 | 0.0927 | 0.109 | 0.0967 | 0.0827 | 0.0942 | 0.111 | 0.076 | 0.0781 | – | 0.0881 |
| MGESLFKGPRDYNPISSSICHLTNESDGHTTSLYGIGFGPFIITNTHLFRRNNGTLVVQSLHGVFKVKDTTTLQQHLVDGRDMIIIRMPKDFPPFPQKLKFREPQREERICLVTTNFQTKSMSSMVSDTSCTFPSGDGIFWKHWIQTKDGQCGSPLVSTRDGFIVGIHSASNFTNTNNYFTSVPKNFMELLTNQEAQQWVSGWRLNADSVLWGGHKVFMVKPEEPFQPVKEATQL [K46T] | 0.0922 | 0.0759 | 0.117 | 0.0679 | – | 0.0992 | 0.0644 | 0.085 | – | 0.0804 | – | 0.0671 | – | – | 0.0935 | 0.0758 | 0.0803 | 0.0547 | 0.0836 |
| MGESLFKGPRDYNPISSSICHLTNESDGHTTSLYGIGFGPFIITNKHLFRRNNGTLVVQSLHGVFKVKDTTTLQQHLVDGRDMIIIRMPKDFPPFPQKLKFREPQREERICLVTTNFQTKSMSSMVSDTSCTFPSGDGIFWKHWIQTKDGQCGSPLVSTRDGFIVGIHSASNFTNTNNYFTSVPKNFMELLTNQEAQQWVSGWRLNADSVLWGGHKVFMVKPEEPFQPVCEATQL [K230C] | 0.0951 | 0.0819 | 0.111 | – | – | 0.1 | 0.0937 | 0.128 | – | 0.116 | 0.112 | – | – | – | 0.122 | 0.104 | – | 0.114 | 0.104 |
| MGESLFKGPRDYNPISSSICHLTNESDGHTTSLYGIGFEPFIITNKHLFRRNNGTLVVQSLHGVFKVKDTTTLQQHLVDGRDMIIIRMPKDFPPFPQKLKFREPQREERICLVTTNFQTKSMSSMVSDTSCTFPSGDGIFWKHWIQTKDGQCGSPLVSTRDGFIVGIHSASNFTNTNNYFTSVPKNFMELLTNQEAQQWVSGWRLNADSVLWGGHKVFMVKPEEPFQPVKEATQL [G39E] | 0.0619 | 0.0386 | 0.043 | 0.0408 | 0.0308 | – | 0.0497 | 0.0383 | – | 0.046 | – | 0.0537 | 0.0458 | 0.0415 | 0.0455 | – | 0.0372 | 0.037 | – |
| MGESLFKGPRDYNPISSSICHLTNESDGHTTSLYGIGFIPFIITNKHLFRRNNGTLVVQSLHGVFKVKDTTTLQQHLVDGRDMIIIRMPKDFPPFPQKLKFREPQREERICLVTTNFQTKSMSSMVSDTSCTFPSGDGIFWKHWIQTKDGQCGSPLVSTRDGFIVGIHSASNFTNTNNYFTSVPKNFMELLTNQEAQQWVSGWRLNADSVLWGGHKVFMVKPEEPFQPVKEATQL [G39I] | 0.0479 | 0.0399 | 0.0531 | – | 0.0329 | – | 0.0393 | – | 0.0481 | 0.0503 | 0.0392 | 0.0298 | 0.047 | – | 0.0442 | – | 0.0413 | 0.0425 | 0.0381 |
